Where “and” joins values, the source holds several entries; their conditions need not be identical. Equal entries are not always repeated. The campaign covered roughly 380,000 compounds. About 1,300 (0.34%) were called active. The inconclusive results got no clear call from the source; some entries with a clear call stand among them for comparison.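 How the source made its calls: active means drop in luminescence signal, shown as inhibition above about 50% in the replicate tests (limit read from the data, passing the limit was not always enough); inconclusive means probably only some replicates passing the limit; inactive means the rest.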
What follows are compounds tested on Drosophila bursicon receptor LGR2 (rickets) (assay: inhibitors of bursicon-induced LGR2 CRE-luciferase signal, primary screen, cell-based, HEK293, CRE-luciferase reporter, bursicon stimulation (AID 720647;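 further: agonist challenge used bursicon conditioned medium at about half maximal strength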)). Settings: bursicon-stimulated, 4 h, at 9.99 µM, active compounds read high.

| Compound | inhibition |
| --- | --- |
| c1csc(-c2nc(CN3CCSCC3)cs2)c1 | inconclusive: 50.1% |
| CCC(=O)N1C[C@H](C)[C@H](OC)CN(C)C(=O)c2cc(NC(=O)COC)ccc2OC[C@H]1C | inactive: -18.1% |
| C=CC[C@]12CC=CC(=O)[C@@]1(O)O[C@H](c1ccc(OC)c(OC)c1)[C@H]2C | inconclusive: 53.2% |
| N#C[C@@H]1[C@@H](c2ccccc2C2=CCCCC2)[C@H](CO)N1C(=O)NC1CCCCC1 | inactive: 15.6% |
| CC(C)c1ccc2c(c1)C(N1CCNCC1)Cc1ccc(F)cc1S2 (centres undefined) | active: 104% |
| COCC(=O)OC1CCn2c1nc1c2C(=O)C(C)=C(NC(C)=O)C1=O (centres undefined) | active: 85.8% |
| CCOc1ccc(Nc2nc(NCC3CCCO3)c3ccccc3n2)cc1 (centres undefined) | inconclusive: 43.8% |
| COc1ccc(-c2csc3ncnc(Sc4nnnn4C)c23)cc1 | inconclusive: 56.2% |
| COc1ccc(C#Cc2ccc([C@H]3[C@@H](CO)N4C(=O)CN(C(=O)c5cccnc5)C[C@@H]34)cc2)cc1 | inactive: -16.7% |
| CC[C@@H](C)[C@@H]1CN([C@@H](C)CN2CCC[C@H]2CN2C(N)=NC[C@H]2CC(C)C)C(=N)N1CCc1ccc(Cl)c(Cl)c1 | inactive: -0.761% |
| COc1ccc(C2C(C)C(=O)C(C)C(c3ccc(OC)cc3)N2N=O)cc1 (centres undefined) | inconclusive: -8.69% |
| CC(C)NC(=O)N[C@H]1CC[C@H](CC(=O)NCc2ccc(Oc3ccccc3)cc2)O[C@H]1CO | inactive: -4.8% |
| O=C1N=C(N2CCCCC2)S/C1=C\c1cn[nH]c1-c1ccccc1 | inconclusive: 54.3% |
| Cc1ccc(/C=C/c2nnc(-c3ccc(C)cc3)o2)cc1 | inactive: -30.4% |
| O=C(Nc1ccc2nc3n(c(=O)c2c1)CCCCC3)c1cc([N+](=O)[O-])ccc1F | inconclusive: 85.9% |
| C[C@@H]1CCCCO[C@@H](CN(C)C(=O)Nc2ccc3c(c2)OCO3)[C@H](C)CN([C@H](C)CO)C(=O)c2cc(NS(=O)(=O)c3cn(C)cn3)ccc2O1 | inactive: -1.6% |
| Cc1ccc(S(=O)(=O)Nc2ccc3c(c2)CC(=O)N([C@H](C)CO)C[C@@H](C)[C@H](CN(C)Cc2ccc(C(F)(F)F)cc2)O3)cc1 | inconclusive: 4.33% |
| C[C@H]1CN([C@@H](C)CO)C(=O)c2cccc(NS(=O)(=O)c3cccs3)c2O[C@H]1CN(C)CC1CCCCC1 | inactive: 8.32% |
| COc1ccc(-c2ncn(CCc3ccccc3OC)c2CC(C)C)cc1 | inconclusive: 51.4% |
| O=C(C[C@H]1C[C@@H]2c3cc(NS(=O)(=O)c4ccc(F)cc4)ccc3O[C@@H]2[C@@H](CO)O1)NCc1ccc(Oc2ccccc2)cc1 | inconclusive: 11.9% |
| COc1ccc2nc(-c3ccccn3)ccc2c1 | inconclusive: 71% |
| Cc1ccc(C)c(-c2cc(C(=O)Nc3sc(C)c(C)c3C(N)=O)c3ccccc3n2)c1 | inconclusive: 29.5% |
| O=C1c2ccc(Cl)cc2S(=O)(=O)c2cccc(C(=O)N3CCC(Cc4ccccc4)CC3)c21 | inconclusive: 96.3% |
| COc1ccc(S(=O)(=O)N(C)C[C@H]2Oc3ccc(N(C)C)cc3C(=O)N([C@@H](C)CO)C[C@H]2C)cc1 | inactive: 3.54% |
| COC(=O)c1cc(=O)n(-c2ccc(F)cc2)c(=Nc2ccc(F)cc2)s1 | inconclusive: 30.4% |
| O=C(O)c1cc(-c2ccc(/C=C3/SC(=S)N(Cc4ccccc4)C3=O)o2)ccc1Cl | inconclusive: 15% |
| c1ccc(-n2ncc3c(N4CCCCC4)ncnc32)cc1 | active: 60.9% |

| Compound | inhibition |
| --- | --- |
| CCOc1ccc(/C=N/NC(=O)c2[nH]ncc2Br)c(O)c1 | inconclusive: 45.8% |
| COc1ccccc1CCn1cnc(-c2ccc(Cl)cc2)c1CC(C)C | inconclusive: 53% |
| Cc1cc(OC(=O)c2ccc(Cl)cc2)cc(=O)n1C | inconclusive: 55.3% |
| Cc1ccc(/C=N/Nc2ccc3ccccc3n2)o1 | inconclusive: 50.3% |
| C[C@H]1CN([C@@H](C)CO)C(=O)Cc2cc(NC(=O)CCCCCC(=O)Nc3ccccc3N)ccc2O[C@@H]1CN(C)C(=O)Nc1ccc(F)cc1 | inactive: -17.6% |
| Cc1ccccc1C(=O)Nc1nnc(-c2ccco2)s1 | inconclusive: 51.3% |
| CNC[C@H](CC1CCCCC1)NC[C@H](CO)NCCc1cccc(C(F)(F)F)c1 | inconclusive: 58.1% |
| CCOC(=O)c1c(C)[nH]c(C(=O)OCC(O)=C(C#N)c2nc3ccccc3[nH]2)c1C | inactive: 6% |
| CCC(=O)Nc1cccc(-c2ccc(N3CCC(C)CC3)nn2)c1 | inconclusive: 40.5% |
| O=C(Cc1ccncc1)NCC[C@H]1CC[C@H](NC(=O)C2CCCC2)[C@H](CO)O1 | inconclusive: -18.3% |
| CCOC(=O)c1ccc(N=c2sc(C(=O)OC)cc(=O)n2CCCN2CCOCC2)cc1 | inactive: 27% |
| Cc1c(S(=O)(=O)c2ccccn2)c(N)n(Cc2ccccc2Cl)c1C | inactive: -18.1% |
| Cc1cc(NC(=O)c2ccc3c(c2)OCCO3)ccc1NC(=O)c1cc2ccccc2o1 | inconclusive: -0.082% |
| Nc1nc2ccc(-c3nc4ccccc4o3)cc2s1 | inactive: -16.5% |
| CCCCCCCCCCCCCCCC[n+]1ccccc1 | inconclusive: 57.8% |
| COC(=O)c1c(-n2c(C)cc(C=O)c2C)sc2c1CCCC2 | inconclusive: 53.2% |
| Cc1ccc(-n2ncc3c(N4CCN(c5ccccc5)CC4)ncnc32)c(C)c1 | inconclusive: 45.8% |
| COc1ccc(S(=O)(=O)N2CC[C@H]3[C@@H](CO)N(C)c4ccc(C5=CCCCC5)cc4[C@H]32)cc1 | inactive: 3.9% |
| CCOC(=O)C(=Cc1ccccc1OC)C(=O)OCC | inconclusive: 33% |
| Cc1ccc(-c2cc(-c3ccccc3)no2)c(O)c1 | inconclusive: 56.2% |
| C[C@H](CO)N1C[C@H](C)[C@H](CN(C)C(=O)Nc2ccccc2)OCCCC[C@H](C)Oc2ccc(NC(=O)Nc3ccc4c(c3)OCO4)cc2C1=O | inconclusive: 51.4% |
| CC(C)NC(=O)N1CC(=O)N2[C@@H](CO)[C@H](c3ccc(/C=C/c4ccccc4)cc3)[C@@H]2C1 | inactive: 10.2% |
| Cc1ccc(NC(=O)c2ccc3nsnc3c2)c(Cl)c1 | inconclusive: 36.1% |
| O=C(Nc1ccc(Cl)cc1)Nc1nnc(-c2ccncc2)s1 | inconclusive: 50.7% |
| Cc1ccc(S(=O)(=O)Nc2ccc3c(c2)CC(=O)N([C@H](C)CO)C[C@H](C)[C@H](CN(C)Cc2ccc(Cl)c(Cl)c2)O3)cc1 | inconclusive: 62.6% |
| Cc1ccc(Nc2nc(N)c3ccccc3n2)cc1Cl | active: 71.9% |
| O=C1C=CC2(C=C1)O[C@H](Cc1ccccc1)[C@@H](Cc1ccccc1)O2 | active: 97.9% |

| Compound | inhibition |
| --- | --- |
| CCC(=O)N(C)C[C@H]1Oc2cc(C#CCC(C)C)ccc2S(=O)(=O)N([C@H](C)CO)C[C@@H]1C | inconclusive: 81.4% |
| NC(Cc1ccc(C(F)(F)F)cc1)c1csc(Nc2nncc3ccccc23)n1 (centres undefined) | inconclusive: -10.2% |
| COc1ccc(CC(=O)Nc2cccc(-c3nnc(-c4cccc(C)c4)o3)c2)cc1OC | inconclusive: 78% |
| CC1CCC(C(C)C)C(OC(=O)Cn2c(-c3ccc(Br)cc3)[n+](C)c3ccccc32)C1 (centres undefined) | active: 66.9% and active: 77.8% |
| CCC(=O)N1C[C@@H](C)[C@@H](OC)CN(C)C(=O)c2ccc(NC(=O)CC(F)(F)F)cc2OC[C@H]1C | inactive: 3.98% |
| Clc1ccccc1Nc1nnc(-c2ccncc2)s1 | inconclusive: 44.7% |
| C(=C\c1ccc2ccccc2n1)/c1ccccc1 | active: 93.9% |
| Cc1ccc(N/C=C/C(=O)c2cccs2)cc1 | active: 75.4% |
| Cc1cccc(NCc2ccc(O)c3ncccc23)c1 | inconclusive: 51.9% |
| CCOC(=O)C1=CC[C@@H](c2ccccc2)N(S(=O)(=O)c2ccc(C)cc2)[C@H]1c1ccccc1C | inconclusive: 0.246% |
| CCCC(=O)Nc1ccc2c(c1)C(=O)N(C)[C@H]1CC[C@@H](CC(=O)NCCc3ccccc3)O[C@@H]1CO2 | inactive: 0.925% |
| O=C(Nc1ccc(Cl)cc1)Nc1ccccc1C(=O)O | inconclusive: 46.1% |
| Cc1cccn2c(CNCC3(c4ccccc4)CCCC3)c(C(=O)N3CCOCC3)nc12 | inconclusive: 26.8% |
| Cc1ccc(OCCCCNC2CCCC(C)C2C)c(C)c1 (centres undefined) | inconclusive: 25.6% |
| C[C@H]1CN([C@@H](C)CO)S(=O)(=O)c2ccc(C3=CCCCC3)cc2O[C@@H]1CN(C)S(=O)(=O)c1ccc(F)cc1 | inactive: 14.6% |
| CCCCC(=O)Nc1ccccc1N1CCOCC1 | inconclusive: -12.1% |
| Cc1cnc(NC(=O)c2ccccn2)s1 | active: 59.5% |
| COc1cc(C(=O)c2cc3c(cc2C)OCO3)cc(OC)c1OC | inactive: -14.7% |
| CCOC(=O)[C@]12Cc3c(cc(OC)c(OC)c3OC)[C@H]1N(CCC(=O)OC)C(=O)c1cc(OC)ccc12 | inconclusive: 50.1% |
| O=C(C[C@H]1CC[C@@H]2[C@H](COC[C@H](O)CN2C(=O)Nc2cccc(F)c2)O1)NCCCN1CCOCC1 | inactive: -16.1% |
| CN(C)c1ccc(N=Cc2cccn2C)cc1 | inconclusive: 32.6% |
| O=C(c1ccc(S(=O)(=O)N2CCCCC2)cc1)N1CCN(CCN2C(=O)c3cccc4cccc(c34)C2=O)CC1 | active: 77.1% |
| CCn1c(/C=C/c2ccc(O)c(O)c2)nc2ccccc2c1=O | inconclusive: 54.8% |
| CNC[C@H](CC1CCCCC1)NC[C@H](Cc1ccccc1)NCCC12CC3CC(CC(C3)C1)C2 | active: 101% |
| Cc1cccc(NC(=O)C(C)OC(=O)c2ccccc2NS(=O)(=O)c2cc(C)c(C)c([N+](=O)[O-])c2)c1 (centres undefined) | inconclusive: 13.9% |

Reference: PubChem BioAssay AID720647 (Broad Institute, 2013)
